This note sets out measurements from article PMC7819943, “Rice protein-binding microarrays: a tool to detect cis-acting elements near promoter regions in rice”.

The other results are listed elsewhere or left out.

In the assay the target is T1, OsWOX13 (Oryza sativa, UniProt Q5QMM3 1-267).
T1 sequence: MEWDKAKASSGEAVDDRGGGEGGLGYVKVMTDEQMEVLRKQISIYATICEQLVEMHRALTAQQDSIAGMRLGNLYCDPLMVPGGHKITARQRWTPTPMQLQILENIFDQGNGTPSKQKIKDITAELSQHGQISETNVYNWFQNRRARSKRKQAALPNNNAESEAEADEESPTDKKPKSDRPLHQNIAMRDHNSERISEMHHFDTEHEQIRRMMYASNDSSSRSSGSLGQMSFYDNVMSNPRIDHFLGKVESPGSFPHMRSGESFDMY
The experiment in a line: protein-binding microarray (RPBM); PBS, 2% BSA, 51.3 ng/ul salmon testes DNA, 50 uM zinc acetate, 200 nM TF, 25 C, 1 h; high values mean tight binding. To be noted: protein: recombinant; tags: N-terminal polyhistidine and DsRed monomer fusion (pET32a); label: CyDye5-dUTP incorporated in the synthesized complementary strand; 3' TTTTT single-stranded linker to array surface; dsDNA, one strand shown. The procedure, abridged: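 A custom Agilent array was converted to double-stranded form by primer extension with Cy5-dUTP and blocked with 2% BSA. Protein at 200 nM in PBS with 2% BSA, salmon testes DNA and 50 µM zinc acetate was applied for 1 h at 25 °C, followed by washing. The proteins were polyhistidine–DsRed N-terminal fusions of transcription factors, expressed in E. coli BL21-CodonPlus and Ni–NTA-purified. The binding signal is per-feature fluorescence intensity (arbitrary units) from an Axon 4000B scanner.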
As to “ATCCAATCATTTCAAAACGTATTCCTCAGCACATTAAACGCGGAGTCACCTAGTGCAG”, the binding signal is 19400 fluorescence intensity (a.u.).
Turning to “CCGATTCAAATTTGAATTTAAATATTTTCTATATATAGTACGGAGTCACCTAGTGCAG”, the binding signal was 3280 fluorescence intensity (a.u.).
Next, “CCAATAGACAATTTTGACTATGACAGAAGGACAAGCTATACGGAGTCACCTAGTGCAG”: 8840 fluorescence intensity (a.u.); “TCATTAACAGCAGCAAATCAGCAGAAGCACTGCTGATCTTCGGAGTCACCTAGTGCAG”: 6140 fluorescence intensity (a.u.); “TTTCCAGTTAACAGATGATTCCCAAGTTATGGTCAAAACACGGAGTCACCTAGTGCAG”: 9050 fluorescence intensity (a.u.).
For “AAGCTATGATGATTAGTGAAACAAAAGCAATGCTGGAAGACGGAGTCACCTAGTGCAG”, the binding signal is 7030 fluorescence intensity (a.u.).
The value for “CTAAACACGTTGATGGGCCTGAATGGAGGAAGCCCATCGACGGAGTCACCTAGTGCAG” was 3790 fluorescence intensity (a.u.); that for “GGAATCAATCGAGAGATTAGAGTGTACGTGAGAGCTAGCGCGGAGTCACCTAGTGCAG” was 4160 fluorescence intensity (a.u.); that for “CAGAAACTGAAATACCAATTGATTCTTCCAATTCCCTGAACGGAGTCACCTAGTGCAG” was 6740 fluorescence intensity (a.u.).
The value for “CCTGATGATATATACTTGTTAAACTGCAGCACTCGAATCACGGAGTCACCTAGTGCAG” was 13000 fluorescence intensity (a.u.).
“TTCAAGCTTAATTTTAAGATTGATTTTGACATATTTTCAACGGAGTCACCTAGTGCAG”: the binding signal is 9580 fluorescence intensity (a.u.).
The value for “GGGGTTGGAAATGATGATCACCATCACTACAACATGTCATCGGAGTCACCTAGTGCAG” was 3160 fluorescence intensity (a.u.); that for “GTTATGATTGGTTGAGACGAGAGAATAAGTGAAGAAATTGCGGAGTCACCTAGTGCAG” was 40300 fluorescence intensity (a.u.).
Consider “CAAATGTAATTTCGCACTATTCTTATCTAATGTTTGACATCGGAGTCACCTAGTGCAG”, for which the binding signal is 4370 fluorescence intensity (a.u.).
In the case of “GACTTCATAATTAATACTTTAATTAAAACACTTATTCTACCGGAGTCACCTAGTGCAG”, the binding signal is 20000 fluorescence intensity (a.u.).
Consider “CTGTTGACATATAATTCTACACCCTGAAATGGTAAAACTGCGGAGTCACCTAGTGCAG”, for which the binding signal is 4860 fluorescence intensity (a.u.).
Next, “TTAACAGGGACATTGATCCTTGATTAATAATGCTGATTAGCGGAGTCACCTAGTGCAG”: 14700 fluorescence intensity (a.u.); “GGTGACCGTTAAACGCAGATTAAATTTGATGAATTAAAGCCGGAGTCACCTAGTGCAG”: 6840 fluorescence intensity (a.u.).
The value for “AATCAATCTACAGCAACAAATCAAAATCTCTCGGTTTAGCCGGAGTCACCTAGTGCAG” was 15700 fluorescence intensity (a.u.).
The value for “TATTCCATCCGTTTCAATCATATTATAAGTTGCTTTGATTCGGAGTCACCTAGTGCAG” was 10300 fluorescence intensity (a.u.); that for “TGCAACTATGATTATCCGTATCCAACTTTGATTTTCCGTTCGGAGTCACCTAGTGCAG” was 6010 fluorescence intensity (a.u.); that for “CGGGCTTCTTGATTTGCGGATTGTTGTTGTGGATCGCCAGCGGAGTCACCTAGTGCAG” was 5040 fluorescence intensity (a.u.).
On to “TTAACAGTCAATCCCTTTAATTTAGATTTAGTATGATCTGCGGAGTCACCTAGTGCAG”, for which the binding signal is 41700 fluorescence intensity (a.u.).
Turning to “TGTAATTTCAGTGCTAATTTGGAAGGGAACTCAGCTAATCCGGAGTCACCTAGTGCAG”, the binding signal was 19200 fluorescence intensity (a.u.).
For the sequence “AACAAATGTTTTATTAATTATTTAATCTTTTGGATTTAATCGGAGTCACCTAGTGCAG”, the binding signal is 3320 fluorescence intensity (a.u.).
As to “TTACCATCAATCTCAATCTTTCGCCGTTTAATTTCCTCACCGGAGTCACCTAGTGCAG”, the binding signal is 7580 fluorescence intensity (a.u.).
Next, “GCCATAATCAATTACTGAAGTAATCCACTCTCAATTGAACCGGAGTCACCTAGTGCAG”: 39800 fluorescence intensity (a.u.); “AGGTCGTTGATTGCTTAAGTTTCAATCTAATGCTAAATTTCGGAGTCACCTAGTGCAG”: 10700 fluorescence intensity (a.u.).
In the case of “AGCTCAATTTAGTCTTTCAGGTTTTATTTTGTCCACGTAGCGGAGTCACCTAGTGCAG”, the binding signal was 3620 fluorescence intensity (a.u.).
Turning to “TCATTAATTAAGAGGTAACAAGTACAACATATCACAGCTACGGAGTCACCTAGTGCAG”, the binding signal was 11400 fluorescence intensity (a.u.).
In the case of “GATCAATCATTTGCTGAGCTCGTGAATTCTGTCTGGTTCACGGAGTCACCTAGTGCAG”, the binding signal was 24300 fluorescence intensity (a.u.).
For “ATAAAATAAATGATAATTACATAAATTTCTTTAAATAAGACGGAGTCACCTAGTGCAG”, the binding signal is 10900 fluorescence intensity (a.u.).
On to “CCAACAGATTCATTATTGTTCAATCTTAGTCATGCATTTACGGAGTCACCTAGTGCAG”, for which the binding signal was 3220 fluorescence intensity (a.u.).
The value for “GAAATATGTGACAGGTAGAATTTTCTAAAGTTCTACAGAACGGAGTCACCTAGTGCAG” was 3150 fluorescence intensity (a.u.).
Next, “TCTATTACTATTAATTTAAACATATGTTTCTTCGAATTTACGGAGTCACCTAGTGCAG”: 3980 fluorescence intensity (a.u.); “GATAACTGGTGTGGAGGCTGCGGCGTGGGTGGTAAAGCACCGGAGTCACCTAGTGCAG”: 3220 fluorescence intensity (a.u.).
Next, “AAAATTTTCCTACGTGATTGTTTGAATCATAGGAATAGCTCGGAGTCACCTAGTGCAG”: 19900 fluorescence intensity (a.u.); “TTAATTAATTTCTCTAATGATTCTCAATCTTGTGTTCTTCCGGAGTCACCTAGTGCAG”: 28300 fluorescence intensity (a.u.).
As to “ATCGATCATTGACAGAAATCACCCATACCTTGAGATTCTTCGGAGTCACCTAGTGCAG”, the binding signal was 23400 fluorescence intensity (a.u.).
Next, “GAGATTACAAATGAATAAATTAGCTATCATAAAGTTGAAACGGAGTCACCTAGTGCAG”: 5150 fluorescence intensity (a.u.); “AGCTTATAGTCAATTATTGTACTTGCTCTAAGTATAGGCTCGGAGTCACCTAGTGCAG”: 12200 fluorescence intensity (a.u.); “TTAATCGATGATTGATAATACGTGAACATGCTATATTAGTCGGAGTCACCTAGTGCAG”: 45100 fluorescence intensity (a.u.).
The value for “GTAGCAAATTTACAAATTTGCAGGGCTAGCTGTTGCGGTGCGGAGTCACCTAGTGCAG” was 11100 fluorescence intensity (a.u.).
With “ATCCAAACATCTTATTGTGATTGGGAATGGTATATGTTTCCGGAGTCACCTAGTGCAG”, the binding signal was 9830 fluorescence intensity (a.u.).
With “ACATTACTAATTGAGAGGAACCGACGAATTGTACCTGAAACGGAGTCACCTAGTGCAG”, the binding signal is 11100 fluorescence intensity (a.u.).
For “TCATCTAAACAGATTAGGATCTTATTTGCACTGGTTTTGACGGAGTCACCTAGTGCAG”, the binding signal is 8020 fluorescence intensity (a.u.).
With “AAAATAATTAATACTTAATTAATAATTCTGATCCTAAGTACGGAGTCACCTAGTGCAG”, the binding signal is 42900 fluorescence intensity (a.u.).
Consider “TGAAACAATTAACCATCAGAAATTAAACATGCATGCATGACGGAGTCACCTAGTGCAG”, for which the binding signal was 9260 fluorescence intensity (a.u.).
On to “ATTAATAGAGGTTGATTTTATATAAAACAAATGATGTGCCCGGAGTCACCTAGTGCAG”, for which the binding signal was 25800 fluorescence intensity (a.u.).
The value for “TAGATTAGCGAGCAAATTTACACTGTTTTAAATGTTGTATCGGAGTCACCTAGTGCAG” was 6460 fluorescence intensity (a.u.); that for “TATAGGTCCAATCTAATTTGTATCCCTTGACCGCAATACCCGGAGTCACCTAGTGCAG” was 7590 fluorescence intensity (a.u.).
The value for “TTGCAGTAGTATGATCCAATTAAACCAAATTATAATGGCACGGAGTCACCTAGTGCAG” was 3140 fluorescence intensity (a.u.); that for “ATAATTGTAAACCACAAATCTAGAATTCAAAGCCGGTTTCCGGAGTCACCTAGTGCAG” was 4130 fluorescence intensity (a.u.).
The value for “ATTAATTCGTCAGATAGATAGATATATATACGCGTTCATCCGGAGTCACCTAGTGCAG” was 13700 fluorescence intensity (a.u.).
